Assay results as given in the BET-seq Pho4 binding data (Le et al. 2018).
This is one part of the list. The energies were worked out here from pooled read counts, against the library average; single values are noisy.

Each sequence was assayed against T1, Pho4 (S. cerevisiae) (UniProt P07270) (assay: relative binding free energy (BET-seq); higher = weaker binding). Details: reference: library average.
T1 sequence: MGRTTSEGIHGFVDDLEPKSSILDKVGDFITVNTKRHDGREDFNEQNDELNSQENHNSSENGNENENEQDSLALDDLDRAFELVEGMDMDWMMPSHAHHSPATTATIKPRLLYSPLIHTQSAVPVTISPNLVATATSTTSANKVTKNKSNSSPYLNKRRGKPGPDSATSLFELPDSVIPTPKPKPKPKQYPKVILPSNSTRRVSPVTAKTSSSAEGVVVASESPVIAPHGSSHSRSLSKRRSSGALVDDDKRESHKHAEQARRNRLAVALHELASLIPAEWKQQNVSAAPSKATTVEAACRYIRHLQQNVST

Sequence	relative binding free energy
TTACTCACGTGGGCGG	0.24 kcal/mol
AGTGGCACGTGTGTGG	-0.06 kcal/mol
CGGGGCACGTGAGGTT	0.17 kcal/mol
CTTTTCACGTGTTGAG	0.21 kcal/mol
AAAGGCACGTGATGTT	0.04 kcal/mol
GAGCTCACGTGGTTTG	0.16 kcal/mol
TGGAGCACGTGGTTCG	-0.08 kcal/mol
AGTGTCACGTGTGGCA	0.08 kcal/mol
TGGCTCACGTGGTACG	0.27 kcal/mol
TTTTCCACGTGTTCAG	0.13 kcal/mol
TCGGACACGTGAATGT	0.33 kcal/mol
CTAGTCACGTGGCGGT	-0.02 kcal/mol
GTTGACACGTGGATCG	0.07 kcal/mol
TGCGACACGTGTAGTG	-0.04 kcal/mol
TTTCACACGTGATGTG	0.2 kcal/mol
TGCTTCACGTGAGCGG	0.21 kcal/mol
GTTGTCACGTGGCTCG	0.23 kcal/mol
AGGGCCACGTGGTGGT	-0.17 kcal/mol
GGAGGCACGTGAACGT	0.21 kcal/mol
TCTTGCACGTGTGTCG	0.01 kcal/mol
GAGGACACGTGGCTTG	-0.02 kcal/mol
AGGCTCACGTGGGTTT	0.14 kcal/mol
GGAGGCACGTGTCAAG	0.01 kcal/mol
GAGAGCACGTGGTGAA	-0.03 kcal/mol
TGTGCCACGTGTAGGT	-0.07 kcal/mol

Sequence	relative binding free energy
TTGCTCACGTGATAAG	0.3 kcal/mol
GTCTGCACGTGCGGTG	0.02 kcal/mol
TTAGGCACGTGAACTG	0.17 kcal/mol
TTATACACGTGGTGCA	-0.09 kcal/mol
CGGAACACGTGGTGTG	-0.14 kcal/mol
TAGTTCACGTGAGGCA	0.38 kcal/mol
TGGCTCACGTGGTGGG	0.19 kcal/mol
ATATGCACGTGGGTGA	-0.11 kcal/mol
GTAATCACGTGGTGAT	0.07 kcal/mol
AGTTTCACGTGAGCGA	0.37 kcal/mol
GGGTTCACGTGACTAG	0.41 kcal/mol
ATTGACACGTGGTATT	-0.14 kcal/mol
ATGCACACGTGGGTTA	-0.13 kcal/mol
GTAAGCACGTGGTCGA	-0.06 kcal/mol
CTAGTCACGTGGGACG	0.09 kcal/mol
TTTCTCACGTGGGTGC	0.14 kcal/mol
AAGTGCACGTGTGGGT	-0.01 kcal/mol
CATTTCACGTGATGTT	0.29 kcal/mol
ATCTTCACGTGAGAGG	0.35 kcal/mol
GCTTGCACGTGAGTTG	0.21 kcal/mol
TGAAACACGTGAGGGT	0.28 kcal/mol
AAATGCACGTGAAGTA	0.32 kcal/mol
TGCGCCACGTGTTGAG	0.07 kcal/mol
AATGTCACGTGTTTAT	0.16 kcal/mol
GCTGGCACGTGTGCTG	0.02 kcal/mol

Sequence	relative binding free energy
TTCGACACGTGTGTTT	0.04 kcal/mol
TCATGCACGTGGGGTT	-0.11 kcal/mol
TTTTGCACGTGTGCAT	0.05 kcal/mol
TGTCTCACGTGTTAAA	0.32 kcal/mol
AGTAGCACGTGGGCTG	-0.16 kcal/mol
TATGACACGTGGGCTT	-0.2 kcal/mol
GTATGCACGTGAGCGT	0.1 kcal/mol
TCTGGCACGTGGGTGG	-0.12 kcal/mol
TCTATCACGTGAGGGT	0.27 kcal/mol
TGGGCCACGTGAGGGA	0.24 kcal/mol
TTTGACACGTGTGCAT	0.13 kcal/mol
AGATTCACGTGTAGGC	0.26 kcal/mol
GTAGTCACGTGAGGAC	0.26 kcal/mol
TGTGTCACGTGACTGG	0.34 kcal/mol
GTAGTCACGTGCATGT	0.13 kcal/mol
ACCGTCACGTGATGGG	0.25 kcal/mol
AGGAACACGTGTGGGC	0.16 kcal/mol
ATTATCACGTGTATTT	0.04 kcal/mol
GAGAGCACGTGGGGTT	-0.02 kcal/mol
CGAATCACGTGTGGAG	0.27 kcal/mol
ATGAGCACGTGTTGCT	-0.21 kcal/mol
ATTCGCACGTGGATTT	0.08 kcal/mol
TTCTGCACGTGGTTTG	-0.12 kcal/mol
GGCATCACGTGAGGGG	0.34 kcal/mol
TGTGACACGTGCAGAG	0.02 kcal/mol

Sequence	relative binding free energy
GAGGTCACGTGGTTAA	0.13 kcal/mol
GATGGCACGTGGCTTA	-0.08 kcal/mol
CGTAGCACGTGCTGTT	-0.09 kcal/mol
ATGGTCACGTGCTTAT	0.12 kcal/mol
ATATTCACGTGATGGG	0.23 kcal/mol
CGTGGCACGTGGTAGC	-0.23 kcal/mol
TTACTCACGTGATGAT	0.44 kcal/mol
ACTTGCACGTGTAATG	0.07 kcal/mol
GGACGCACGTGAGTTG	0.06 kcal/mol
AATAGCACGTGGGGTG	-0.27 kcal/mol
TGTGTCACGTGATGCG	0.14 kcal/mol
TTAAACACGTGGGTAA	-0.22 kcal/mol
TTCAACACGTGTAGTG	0.02 kcal/mol
GCGTACACGTGTGTTA	0.01 kcal/mol
GCTTGCACGTGAGTTA	0.25 kcal/mol
GGGGGCACGTGTTCCT	-0.09 kcal/mol
GGTTTCACGTGAATTT	0.44 kcal/mol
CTGGGCACGTGAGAGC	0.1 kcal/mol
TATGGCACGTGAACGT	-0.05 kcal/mol
CGGGACACGTGGATGG	-0.07 kcal/mol
GCGATCACGTGGATGT	0.29 kcal/mol
GTGATCACGTGGAATT	0.41 kcal/mol
TTTTGCACGTGGAAGA	0.17 kcal/mol
GGTAGCACGTGTGGAG	0.03 kcal/mol
TGGCACACGTGTAGTA	0.05 kcal/mol

Sequence	relative binding free energy
AGGGGCACGTGAGCCG	0.02 kcal/mol
TGCTGCACGTGGGTGG	-0.15 kcal/mol
GTGCGCACGTGATTGG	0.02 kcal/mol
TGCTTCACGTGTTAAA	0.32 kcal/mol
GGCAGCACGTGCGTGG	-0.09 kcal/mol
TAGGGCACGTGGGTAC	-0.27 kcal/mol
AGCGCCACGTGTTGGT	-0.01 kcal/mol
GGGGCCACGTGTGAAG	0.17 kcal/mol
CTAGGCACGTGTGGCT	-0.01 kcal/mol
GTTATCACGTGTCATT	0.16 kcal/mol
CTTATCACGTGGGAGT	0.07 kcal/mol
TAAGTCACGTGGTTTG	0.06 kcal/mol
ATGCGCACGTGTTGTG	-0.21 kcal/mol
GACGTCACGTGGGGAT	0.15 kcal/mol
TTAGACACGTGTGGCC	0.23 kcal/mol
CGGGTCACGTGTGTAA	0.21 kcal/mol
AAAGGCACGTGCGGTG	-0.22 kcal/mol
CTTGTCACGTGATATG	0.05 kcal/mol
GTGTACACGTGGGACG	-0.03 kcal/mol
CATGGCACGTGTGGTT	-0.18 kcal/mol
TGGTGCACGTGGCGGC	-0.08 kcal/mol
TGGGTCACGTGTCCTT	0.04 kcal/mol
TCTAGCACGTGGGGCG	-0.13 kcal/mol
GGTGGCACGTGTGTTA	0.07 kcal/mol
CTTTTCACGTGGGGAT	0.18 kcal/mol

Sequence	relative binding free energy
CTAGGCACGTGAGGTT	0.04 kcal/mol
TAGGGCACGTGTCTGG	-0.1 kcal/mol
TTTGTCACGTGGAGTC	0.09 kcal/mol
TGGTGCACGTGGTACT	-0.03 kcal/mol
GAGTTCACGTGTTAGT	0.36 kcal/mol
CATGGCACGTGAGGAA	0.15 kcal/mol
TGTGCCACGTGTGCTT	-0.12 kcal/mol
TACGACACGTGCGGGT	-0.07 kcal/mol
AGTAGCACGTGTTCTT	-0.12 kcal/mol
GGTAGCACGTGAACGT	0.27 kcal/mol
AATTGCACGTGTGACG	0.03 kcal/mol
ATGTCCACGTGGGATT	0.03 kcal/mol
TTTAGCACGTGCTGCG	-0.06 kcal/mol
AAGGGCACGTGGACGT	-0.24 kcal/mol
TGGCTCACGTGTCGTG	0.1 kcal/mol
GGGTTCACGTGTATGG	0.43 kcal/mol
ACTTGCACGTGGCTTG	0 kcal/mol
TAGTGCACGTGAATAA	0.19 kcal/mol
CGGGTCACGTGGGCAG	-0.01 kcal/mol
GATTTCACGTGGTGTA	0.35 kcal/mol
TAAGACACGTGGGATA	-0.07 kcal/mol
